Test results from PubChem BioAssay AID720708 (National Center for Advancing Translational Sciences (NCATS), 2013).
Hit rate of the full screen: of about 360,000 compounds, about 660 (0.18%) were called active. The shares of active, inactive and inconclusive entries below differ from those in the screen. Calls come from the whole dose curve; as a rule, active = well fitted inhibition curve with a large enough effect; inconclusive = small, poorly fitted or top-dose-only effect; inactive = no such curve, though single readings can be large or run the other way. Potencies of inconclusive entries are left out as doubtful fits.

Molecular target: Rap guanine nucleotide exchange factor 4 (Homo sapiens) (UniProt Q8WZA2)
Chain of UniProt Q8WZA2 (Q8WZA2 whole entry, looked up): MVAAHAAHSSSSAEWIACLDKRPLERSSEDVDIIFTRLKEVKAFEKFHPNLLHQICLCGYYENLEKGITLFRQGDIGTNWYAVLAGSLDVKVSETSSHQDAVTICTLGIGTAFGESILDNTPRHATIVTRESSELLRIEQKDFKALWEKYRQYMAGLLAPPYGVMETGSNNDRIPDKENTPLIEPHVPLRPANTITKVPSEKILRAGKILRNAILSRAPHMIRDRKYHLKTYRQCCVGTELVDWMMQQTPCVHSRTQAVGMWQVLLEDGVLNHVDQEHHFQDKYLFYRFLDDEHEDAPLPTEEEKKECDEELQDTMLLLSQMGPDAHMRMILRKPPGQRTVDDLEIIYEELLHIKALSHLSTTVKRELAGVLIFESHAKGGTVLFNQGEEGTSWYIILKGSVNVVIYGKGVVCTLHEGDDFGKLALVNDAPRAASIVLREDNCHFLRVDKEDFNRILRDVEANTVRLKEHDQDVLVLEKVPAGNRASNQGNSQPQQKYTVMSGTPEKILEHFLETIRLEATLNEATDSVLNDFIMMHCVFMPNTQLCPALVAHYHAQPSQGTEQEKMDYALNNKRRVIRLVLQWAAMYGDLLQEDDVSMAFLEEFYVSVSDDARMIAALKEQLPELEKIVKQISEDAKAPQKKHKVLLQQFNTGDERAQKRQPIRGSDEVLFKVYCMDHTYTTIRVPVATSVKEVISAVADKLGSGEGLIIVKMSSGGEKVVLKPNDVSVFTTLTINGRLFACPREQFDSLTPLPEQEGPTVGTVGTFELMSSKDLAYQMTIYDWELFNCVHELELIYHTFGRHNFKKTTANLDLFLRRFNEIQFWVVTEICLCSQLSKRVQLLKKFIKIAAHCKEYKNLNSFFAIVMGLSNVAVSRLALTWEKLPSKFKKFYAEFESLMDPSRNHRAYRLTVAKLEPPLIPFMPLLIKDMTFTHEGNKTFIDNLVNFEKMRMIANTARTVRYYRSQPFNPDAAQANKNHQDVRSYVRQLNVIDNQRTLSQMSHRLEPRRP
Test: qHTS for Antagonist of cAMP-regulated guanine nucleotide exchange factor 2 (EPAC2): primary screen; note: nearly all actives have a fitted effect of over 45% in size
Conditions: EPAC2 GEF exchange of Rap1B-BODIPY-GDP, fluorescence; activity, negative = inhibition: at 114 µM (top of the series) unless noted
% is set by controls: 0 for no effect and ±100 for the full control effect; potency is the fitted concentration of half-maximal effect; tags give direction and shape of the fitted curve.

| Compound | Potency | activity, negative = inhibition |
| --- | --- | --- |
| O=C(CCN1C(=O)S/C(=C/c2ccc(F)cc2)C1=O)Nc1ccc(O)c(C(=O)O)c1 | inconclusive [inhibitor, partial curve] |  |
| Cc1ccc(C(C)C)c(OCCSc2nc3ccccc3n2CC(=O)O)c1 | inconclusive [inhibitor, partial curve] |  |
| CCN(CC)c1ccc(/C=C/C(=O)c2ccc(Br)cc2)cc1 | inactive |  |
| COc1ccc2cc3[n+](cc2c1O)CCc1cc2c(cc1-3)OCO2 | active: 89.1 µM |  |
| C=CCN(CC=C)C(=S)NC(=O)/C=C/c1ccccc1 | inactive |  |
| CCOC(=O)C1=CCN(S(=O)(=O)c2ccccc2C)C1c1ccc(Cl)c(Cl)c1 (stereo unspecified) | inconclusive [inhibitor, single point] |  |
| CCOC(=O)C1(c2ccccc2)SC(C(=O)OCC)(c2ccccc2)S1 (stereo unspecified) | inconclusive [inhibitor, partial curve] |  |
| CCc1ccc(-c2cc(C(=O)N3N=C(C(F)F)CC3(O)C(F)F)c3ccccc3n2)cc1 (stereo unspecified) | inconclusive [inhibitor, partial curve] |  |
| O=c1ccc(-c2ccccc2)nn1Cc1ccc(F)cc1 | inconclusive [inhibitor, partial curve] |  |
| COc1ccc(-c2ccc(C(=O)Nc3ccc(OC)nc3)c3occc23)c(C)c1 | inconclusive [inhibitor, single point] |  |
| O=C(C1CCN(CCCc2ccccc2)CC1)N(CCc1ccccc1)Cc1ccccc1 | inactive |  |
| CN1CCC[C@@H]1CCNC(=O)c1cccc2c1C(=O)c1ccc(N3CCCC3)cc1S2(=O)=O | inactive |  |
| CCOc1cccc(C2CC(=O)Nc3cc(OC)c(OC)cc32)c1 (stereo unspecified) | inconclusive [inhibitor, partial curve] |  |
| CCC1=Nc2cc(C(=O)NCc3cccnc3)ccc2Sc2ccc(C)cc21 | inconclusive [inhibitor, partial curve] |  |
| CCOC(=O)C1=C(N)N(c2ccccc2)C(=O)C1 | inactive |  |
| COc1ccc(CCN2CC(C(=O)OCC(=O)Nc3c(C)nn(-c4ccccc4)c3C)CC2=O)cc1OC (stereo unspecified) | inconclusive [inhibitor, single point] |  |
| O=C(O)CSc1cc(NS(=O)(=O)c2ccc(Cl)cc2)c2ccccc2c1O | active: 79.4 µM |  |
| CCCN1C(=O)c2ccccc2NC1c1ccc(C)cc1 (stereo unspecified) | inconclusive [inhibitor, partial curve] |  |
| CC1CCc2c(sc(NC(=O)c3ccccc3C(=O)O)c2C#N)C1 (stereo unspecified) | inactive |  |
| CN(c1cc(Cl)c2c(c1)OCO2)c1cc2c(c3c1ccn3C)C1CCC2C1 (stereo unspecified) | inconclusive [inhibitor, full curve] |  |
| Cc1ccc(Nc2c(-c3ccccn3)nc3cccc(C)n23)cc1 | active: 31.6 µM |  |
| CN1CCN(NC(=O)c2cc(-c3ccc(Br)s3)nc3ccccc23)CC1 | inconclusive [inhibitor, single point] |  |

| Compound | Potency | activity, negative = inhibition |
| --- | --- | --- |
| C/C(=C\C(=O)c1ccc(Cl)s1)N(C)C | inconclusive [inhibitor, partial curve] |  |
| CCOc1ccc(/C=C2\SC(=S)N(NS(=O)(=O)c3ccccc3)C2=O)cc1OC | inconclusive [inhibitor, partial curve] |  |
| Cc1nc(C)c(-c2csc(Nc3ccc(C(=O)O)c(O)c3)n2)s1 | active: 10 µM |  |
| CCOC(=O)C1=C(C)c2ccccc2OC1(C(=O)OCC)C(C)C (stereo unspecified) | inconclusive [inhibitor, partial curve] |  |
| O=C(NCc1ccccc1)c1ccc(-c2ccccc2C(F)(F)F)o1 | inconclusive [inhibitor, full curve, poor fit] |  |
| CC1(Cc2ccc(OC(F)(F)F)cc2)C(=O)Nc2c(Cl)ccc(Cl)c21 (stereo unspecified) | inconclusive [inhibitor, full curve] |  |
| COc1ccc(OCC(O)CN2CCN(c3ccc(OC)cc3)CC2)cc1 (stereo unspecified) | inactive |  |
| Cc1cccc(NCc2ccccc2)c1 | inconclusive [inhibitor, partial curve] |  |
| CCCCc1c(-c2ccccc2)ncn1CCc1ccccc1OC | inconclusive [inhibitor, partial curve] |  |
| COCCCNC(=O)C[C@H]1C[C@H](C(=O)N2CCOCC2)[C@@]2(CCC3CCCC3)c3[nH]c4ccc(Cl)cc4c3CCN2C1=O |  | inconclusive: -14.8% [inhibitor] |
| NC(=O)c1ncn([C@@H]2O[C@H](CNCc3cccc4c3sc3ccccc34)[C@@H](O)[C@H]2O)n1 | inactive |  |
| O=C(CBr)N1CCc2ccccc2C(c2ccccc2)C1 (stereo unspecified) | inconclusive [inhibitor, partial curve] |  |
| Cc1ccc(NC(=O)C2CCN(S(C)(=O)=O)CC2)cc1 | inactive |  |
| CC1(C(=O)NS(=O)(=O)c2ccc(Cl)cc2)CCN1C(=O)Cc1ccccc1 (stereo unspecified) | inactive |  |
| Cn1c2c(c3ccccc31)CCN1CCC[C@]21c1ccccc1 | inconclusive [inhibitor, full curve] |  |
| COc1ccc(OC)c(CNC(=O)Cn2nc(C)c3c(C)n(-c4ccc(C)cc4)nc3c2=O)c1 | inconclusive [inhibitor, single point] |  |
| Cc1ccc(-n2nnnc2C(Cl)(Cl)c2nnnn2-c2ccc(C)cc2)cc1 | inactive |  |
| COc1cc(Cl)cc2c1Sc1ccccc1/C2=C/CCN(C)C | inactive |  |
| O=C(O)c1cc(NN=C2c3ccccc3-c3ccccc32)ccc1Cl | inconclusive [inhibitor, partial curve, poor fit] |  |
| COc1cccc2cc(C(=O)NNC(=O)c3ccc(Br)cc3)c(=O)oc12 | inconclusive [inhibitor, partial curve] |  |
| Cc1cc(C)n(-c2nc3ccccc3nc2NCCc2ccccc2)n1 | inconclusive [inhibitor, single point] |  |
| CC(C)(C)c1ccc(C(=O)NCC(=O)OCC(=O)Nc2ccccc2[N+](=O)[O-])cc1 | inconclusive [inhibitor, full curve] |  |

| Compound | Potency | activity, negative = inhibition |
| --- | --- | --- |
| CCc1ccc2c(c1)NC(=O)C2(C)Cc1ccccc1OC (stereo unspecified) | inconclusive [inhibitor, full curve] |  |
| Cc1ccc(S(=O)ONc2cccc(NOS(=O)c3ccc(C)cc3)c2)cc1 (stereo unspecified) | inconclusive [inhibitor, partial curve] |  |
| Oc1ccc(N=Cc2ccc(OCc3ccccc3)cc2)cc1 | inconclusive [inhibitor, partial curve] |  |
| CCCC(O)(c1ccc(Br)cc1)C(CN1CCOCC1)c1ccc(Cl)cc1 (stereo unspecified) | inconclusive [inhibitor, partial curve] |  |
| NS(=O)(=O)c1ccc(NC(=O)COC(=O)COc2ccc3ccccc3c2)cc1 | inconclusive [inhibitor, full curve, poor fit] |  |
| O=c1c2ccccc2nc2c3ccccc3c(NCc3ccccn3)nn12 | inconclusive [inhibitor, single point] |  |
| COC(=O)c1cnc(Oc2c(Cl)cc(N)cc2Cl)cc1C(F)(F)F | inconclusive [inhibitor, partial curve] |  |
| O=C1[C@@H](Oc2ccccc2)[C@@H](c2cnc3ccccc3c2)N1c1ccccc1 | inconclusive [inhibitor, full curve] |  |
| CCCCc1c(-c2cccc(Br)c2)ncn1CCc1ccccc1OC | inconclusive [inhibitor, partial curve] |  |
| O=C(NN1C(=O)/C(=C\c2ccc(O)c([N+](=O)[O-])c2)SC1=S)c1ccccc1Cl | inconclusive [inhibitor, single point] |  |
| CCOc1ccccc1C(=O)NC(C)CCc1ccccc1 (stereo unspecified) | inconclusive [inhibitor, partial curve] |  |
| Cc1cc(N2CCN(c3ccc(C(F)(F)F)cc3[N+](=O)[O-])CC2)c2ccccc2n1 | inconclusive [inhibitor, full curve, poor fit] |  |
| COc1ccc(-c2cc(=O)oc3c(C)c(OCC(=O)N[C@@H](Cc4ccc(O)cc4)C(=O)O)ccc23)cc1 | inconclusive [inhibitor, partial curve] |  |
| N#C/C(=C/c1cccc([N+](=O)[O-])c1)C(=O)Nc1ccccc1O | inconclusive [inhibitor, single point] |  |
| O=C1NC(=O)C(=Cc2ccccc2[N+](=O)[O-])S1 | active: 79.4 µM |  |
| COc1ccc(C(C)(O)c2nc(-c3ccc(F)c(Cl)c3)cs2)cc1 (stereo unspecified) | inconclusive [inhibitor, partial curve] |  |
| CCO[C@H]1OC(C(=O)Nc2ccccc2)=C[C@@H](c2ccc(C(F)(F)F)cc2)[C@@H]1CCCO | inconclusive [inhibitor, full curve] |  |
| CCCN1C(=O)C(NC(C)=O)c2ccccc21 (stereo unspecified) | inactive |  |
| CN(CC(=O)Nc1ccc(S(=O)(=O)N2CCCC2)cc1)CC(=O)Nc1cccc(F)c1 | inconclusive [inhibitor, single point] |  |
| COc1ccccc1C(=O)NC(CCSC)C(=O)NCC(c1ccccc1OC)N1CCCC1 (stereo unspecified) | inconclusive [inhibitor, single point] |  |
| CC(C)C1C(=O)N(Cc2cn(CCC3OCCO3)nn2)CCS(=O)(=O)N1Cc1ccc(-c2ccccc2Cl)cc1 (stereo unspecified) | inconclusive [inhibitor, partial curve] |  |
| COc1ccc(OC)c([C@@H]2OCCC=C[C@H]2C)c1 | inconclusive [inhibitor, full curve] |  |
